± gives the standard deviation of the averaged measurements. Some of the results follow.

For this assay, the system named is PfAP2-G AP2 domain (GST-tagged). Description: gcPBM binding intensity (ln(normalized median fluorescence intensity)); higher = stronger DNA binding. Put shortly:
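Binding intensity values are the highest Masliner-normalised natural-log median intensity among replicate spots of either probe orientation. The binding step lasted 1 h in 1× PBS with 1% milk, 0.2 mg/ml BSA, 0.5% salmon testes DNA and 0.03% Triton X-100, using GST-tagged P. falciparum DNA-binding domains expressed in E. coli on an Agilent 4 × 180k array of primer-extended double-stranded 36-bp intergenic genomic probes plus negative controls. Alexa488 anti-GST antibody and a 488 nm scan detected bound protein.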
Turning to “TAAATATGCTCACAGATGCACTAACACATTTTTATA [GTGCAC_site9997]”, the “gcPBM binding intensity (ln)” value came to 10.01 ± 0.035. Consider “TTTTATACATAAATGTGTACGTATATATAATGAATT [XGTACX_site2762]”, for which the “gcPBM binding intensity (ln)” value was found to be 11.7 ± 1.

Take “GTTTATATTAAACAAACACACACATATATATATATA [CACACA_site8749]”: the “gcPBM binding intensity (ln)” value is 10.1 ± 0.39. As for “TCCTTATATGGGCACACACACACAATAAAATGAAAA [CACACA_site1030]”, the figure is 10.8 ± 0.66; as for “AAAATTAGGTATATATGTACATATATAAATATATAT [XGTACX_site3555]”, 11.1 ± 0.65.

On to “AACCATTATTTCTCTACACACATTTATGTCATTTAC [CACACA_site1499]”, for which the “gcPBM binding intensity (ln)” value is 10.09 ± 0.021. On to “TATGCTACAAGGAGAACACACAATTGCCACTTTTGG [CACACA_site2166]”, for which the “gcPBM binding intensity (ln)” value is 10.07 ± 0.028.

As to “TTTTTTAATTAGTACAAACACACATATACAGACAAA [CACACA_site2564]”, the “gcPBM binding intensity (ln)” value worked out at 11.2 ± 0.79. As for “TGTTATATATGTAATTGTACACTTATACAAAATTAT [XGTACX_site6350]”, the “gcPBM binding intensity (ln)” value stood at 11.2 ± 0.72.

With “AATAGAACTATTACACGTACAGAACATGAATTAGTT [XGTACX_site7518]”, the “gcPBM binding intensity (ln)” value stood at 11.4 ± 0.91. Under “ATTTAGAATGCGTATACACACATATATAGATTTGCT [CACACA_site626]” stands 10.09 ± 0.078; under “AAAAAAATTAGACACACACACACATATAAATATGTA [CACACA_site6618]”, 9.94 ± 0.042. As for “CAAAATATAACATCATCACACACATATACTTTATAT [CACACA_site8292]”, the figure is 9.88 ± 0.13; as for “ATTTAAAAATAAAGAACACACATATGTAAAATATAT [CACACA_site3754]”, 10.03 ± 0.071. As for “TATGTTTGTGTATATATTTATTTTTATGTAATTATA [GTGCAC_negctrl_site219]”, the “gcPBM binding intensity (ln)” value stood at 9.91 ± 0.26.

Regarding “TTATTAATATATAAATGTACATATACAATACATAAA [XGTACX_site5571]”, the “gcPBM binding intensity (ln)” value turned out to be 11 ± 0.61. For the sequence “TATTTAAGAGTATGAACACACATCATACACATATAA [CACACA_site3617]”, the “gcPBM binding intensity (ln)” value was found to be 10.11 ± 0.071.

Consider “ATTCAAATATTAAAAAGTACAAAAAAAAAACAAAAA [XGTACX_site1174]”, for which the “gcPBM binding intensity (ln)” value was 11.2 ± 0.75. Turning to “ATATAATTATTGATATGTACATATTTGTTCTAGTTT [XGTACX_site3012]”, the “gcPBM binding intensity (ln)” value turned out to be 11.1 ± 0.64. As to “ACATTAAAATATGATTGTACATTTTATTATATTATA [XGTACX_site912]”, the “gcPBM binding intensity (ln)” value was 10.8 ± 0.4. “ACAACACTATATTACACATGCATTAAGAGAGTGAAC [TGCATGCA_site124]”: the “gcPBM binding intensity (ln)” value turned out to be 10.1 ± 0.11.

As for “ACCTGTTCATATGATCGTACACGTCAGTTTATATGA [XGTACX_site3869]”, the “gcPBM binding intensity (ln)” value was determined as 11.1 ± 0.49.

With “TATTTTGAGAATAAATGTACGAATTTTATATTTAAA [XGTACX_site1336]”, the “gcPBM binding intensity (ln)” value turned out to be 11 ± 0.77. Turning to “CTATCATATTTATGCACACAAAAATAATTAATTCGT [CACACA_site2614]”, the “gcPBM binding intensity (ln)” value worked out at 10.2 ± 0.23. Take “TACAAAATGGGGAACACACACATATATAAATAAATA [CACACA_site7751]”: the “gcPBM binding intensity (ln)” value came to 10.6 ± 0.49. For “TAAAATAAAAATTAAAGTACATATGTATATATATAT [XGTACX_site3984]”, the “gcPBM binding intensity (ln)” value is 11.1 ± 0.88. Take “AATCCTTACGGACACACACACACGAATAAATAAAAA [CACACA_site4422]”: the “gcPBM binding intensity (ln)” value was found to be 11.2 ± 0.92. Take “GAGTATTCAAGTATTAGTACATATTATATAATAAAT [XGTACX_site7630]”: the “gcPBM binding intensity (ln)” value worked out at 10.9 ± 0.61. On to “ATAATTATTTTAGAAACACACAAATTAGAAAAAACA [CACACA_site3636]”, for which the “gcPBM binding intensity (ln)” value came out at 10.2 ± 0.19. Consider “AGAGGATCATAGTTATGTACACATATTTAACATAAA [XGTACX_site7232]”, for which the “gcPBM binding intensity (ln)” value came to 11.5 ± 0.91. For the sequence “TCTTCATTTTTATGTGCATGTAAAATTTTTTTTTTT [TGCATGCA_site963]”, the “gcPBM binding intensity (ln)” value turned out to be 10.2 ± 0.19. “GACAATAAAAAGAAAAGTACATATATAAATTAACCA [XGTACX_site7858]”: the “gcPBM binding intensity (ln)” value worked out at 11.3 ± 0.88. As for “AAATATAAAAGTATATGTACATATATATATATATAT [XGTACX_site7446]”, the “gcPBM binding intensity (ln)” value was 11.2 ± 0.64. Under “AATAAATAGATATATACACACATATATCTATAATAT [CACACA_site6557]” stands 9.74 ± 0.11; under “CATATTCCCCCCCACACACACACACCCATACATACC [CACACA_site2303]”, 11.7 ± 0.71; under “CGTGTGTCCCCCTTAATCATCCAATCGTTCATTTTG [CACACA_negctrl_site1008]”, 11.4 ± 1.

Regarding “TATATAATGGTAAAAACACACAAATATGAAGATGTT [CACACA_site722]”, the “gcPBM binding intensity (ln)” value is 9.87 ± 0.16. “ATATTTATTATATAATGTACAAAAAAAAAAAAAAAA [XGTACX_site629]”: the “gcPBM binding intensity (ln)” value stood at 10.6 ± 0.62. Consider “TTTTTTTCTAATTATGCACACATATCAAAATATTCA [CACACA_site8886]”, for which the “gcPBM binding intensity (ln)” value is 10.1 ± 0.25. As for “AATATAAGTTTATTAGTGCACAGATAAATATATATT [GTGCAC_site9784]”, the figure is 10.3 ± 0.3; as for “ATGTATGTTTTTTTTTTATTGTTCAAAAAGTTGAAG [CACACA_negctrl_site1276]”, 10.2 ± 0.18; as for “ATTTTTTATATTAATTGTACATTGTATATATATATA [XGTACX_site8702]”, 10.7 ± 0.26. Consider “TTACTTAAATATAAGTGTCCTCAAAAAAAAAAAAAA [XGTACX_site460]”, for which the “gcPBM binding intensity (ln)” value stood at 11.1 ± 0.93. With “TAGCGCATAAAAAAAAAAAAATATATACTAATAAAT [GTGCAC_negctrl_site276]”, the “gcPBM binding intensity (ln)” value was 9.57 ± 0.071.

As for “AAATATATTATTATCTTATCAATTAAAAGAATAAAC [CACACA_negctrl_site779]”, the “gcPBM binding intensity (ln)” value was 9.91 ± 0.27. Take “TTTTTATAAAAATTATTAAAAAAATTATTTATAGCT [CACACA_negctrl_site265]”: the “gcPBM binding intensity (ln)” value came out at 9.54 ± 0.12. As for “AAAAACTAATCTTTAACATGCAACCGTTTATACATA [TGCATGCA_site363]”, the “gcPBM binding intensity (ln)” value turned out to be 9.875 ± 0.035. Take “TTTTTTTGAACATATACACACTCTAAACTTATACAT [CACACA_site3917]”: the “gcPBM binding intensity (ln)” value amounted to 10.12 ± 0.092. As to “AAAGGTTTATATGATACACACATAAGTGATCAGGTT [CACACA_site190]”, the “gcPBM binding intensity (ln)” value amounted to 10.05 ± 0.021. As to “TGAGTTACATACTAATGTACACAACAAAAAAAAAAA [XGTACX_site2390]”, the “gcPBM binding intensity (ln)” value worked out at 11.2 ± 0.79. Under “TAATTTATGACACGCGCACACATATATATATAGTAA [CACACA_site4249]” stands 10.6 ± 0.42; under “GGTATACGCAAGTATACACACATATATATATATATA [CACACA_site3240]”, 10.1 ± 0.28. Take “AATAAAATAAAATACACACATACATACATACAAATG [CACACA_site2438]”: the “gcPBM binding intensity (ln)” value is 10.2 ± 0.12. Take “AAAAATTATGGACACACACACATATATATATATATT [CACACA_site4717]”: the “gcPBM binding intensity (ln)” value stood at 11.2 ± 0.82. As to TACCAATGCATAACGGTGCAAAAAAATAAGGAATAA, the “gcPBM binding intensity (ln)” value is 10.1 ± 0.12. In the case of “ATGCATATAACTACGTGTACAAATATACACAAATAC [XGTACX_site8811]”, the “gcPBM binding intensity (ln)” value is 11.4 ± 0.86. With “ACTGTAAAAGGATTTACACACATATTTACATTTACA [CACACA_site519]”, the “gcPBM binding intensity (ln)” value is 10.01 ± 0.021.

The values above are taken from the supplement of paper PMC11417369.
